About 530 (0.13%) of roughly 410,000 compounds were called active. The shares of active, inactive and inconclusive entries below differ from those in the screen. Calls come from the whole dose curve; as a rule, active = well fitted inhibition curve with a large enough effect; inconclusive = small, poorly fitted or top-dose-only effect, or another doubt; inactive = no such curve, though single readings can be large or run the other way. Where the call is inconclusive, the potency comes from a doubtful curve fit.
experiment: qHTS of GLP-1 Receptor Inverse Agonists: Cytotox Screen; conditions: HEK293 cAMP-luciferase reporter cells, luminescence, 24 h; activity change, negative = inhibition: at 38.3 µM (top of the series) unless noted
How it was run: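 Step one: seed cells (200 cells/uL, DMEM with 10% Nu serum, 1% pen-strep). Step two: 12-hour incubation at 37 deg C. Step three: pin 23 nL compound, incubate 24 hr. Step four: add luciferase reagent, read luminescence 12 min later.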
% is set by controls: 0 for no effect and ±100 for the full control effect; potency is the fitted concentration of half-maximal effect.

Row | SMILES | Potency | activity change, negative = inhibition
1 | Cc1cc(C)nc(SCNC(=O)c2ccccc2)n1 | inconclusive: 11.2 µM [inhibitor, partial curve, poor fit] | –
2 | CCC/C(=N/NC(=O)c1nnn(-c2nonc2N)c1CN1CCCCC1)c1ccccc1 | inconclusive: 28.2 µM [inhibitor, single point] | –
3 | CCCCn1c(N)c(N(Cc2ccccc2OC)C(=O)COc2ccc(C)cc2)c(=O)[nH]c1=O | – | inactive: -8.28%
4 | CC(=O)c1ccc(C(=O)N2CCc3c([nH]c4ccccc34)C2c2ccccn2)s1 (centres undefined) | inconclusive: 11.2 µM [inhibitor, partial curve, poor fit] | –
5 | O=C(c1cncc(Br)c1)N1CCN(c2ccc(N3CCOCC3)nn2)CC1 | – | inactive: -2.62%
6 | Cc1ccc(-c2nc3cccnc3s2)cc1NC(=O)C(C)C | – | inactive: -11.2%
7 | COc1ccc(OC)c(NC(=O)c2cc(-c3cc(Cl)ccc3O)n[nH]2)c1 | inconclusive: 6.31 µM [inhibitor, partial curve, poor fit] | –
8 | CC(C)(C)c1ccc(-c2n[nH]c(=S)n2-c2ccccc2)cc1 | inconclusive: 17.8 µM [inhibitor, single point] | –
9 | COC(=O)[C@@]1(Cc2ccccc2)[C@H]2C(=O)N(C)C(=O)[C@H]2[C@H]2CN=C(SCc3ccc(C)cc3)N21 | – | inactive: -0.5%
10 | Cc1cc(NC(=O)CCC(=O)N(c2ccccc2C)C(C(=O)NC2CCCC2)c2ccccc2)no1 (centres undefined) | inconclusive: 31.6 µM [inhibitor, partial curve, poor fit] | –
11 | COc1ccc([C@H]2C[C@@H](n3cc(C4CC4)nn3)[C@H](O)CN2CC2CCCCC2)cc1 | inconclusive: 22.4 µM [inhibitor, single point] | –
12 | OC(c1ccc(Cl)cc1)c1ncc(-c2ccccc2Cl)[nH]1 (centres undefined) | – | inactive: 2.13%
13 | Cc1ccc(S(=O)(=O)NNC(=S)Nc2ccc(Cl)cc2)cc1 | inconclusive: 7.08 µM [inhibitor, partial curve, poor fit] | –
14 | Cc1oc2ccc(O)c(CN(C)Cc3ccccc3)c2c1C(=O)Nc1cccc(C(F)(F)F)c1 | inconclusive: 12.6 µM [inhibitor, single point] | –
15 | Cc1nn(-c2ccccc2)c(Cl)c1CN(C(=O)CCl)c1ccc(Cl)cc1 | inconclusive: 28.2 µM [inhibitor, single point] | –
16 | COC(=O)c1cnc(N)s1 | – | inactive: -3.58%
17 | Cc1nc2nc(SCC(N)=O)[nH]c2cc1Br | – | inactive: -3.56%
18 | Brc1cc(Br)c2ncnc(N3CCCCC3)c2c1 | inconclusive: 14.1 µM [inhibitor, single point] | –
19 | Cc1cc(N2CCN(c3ccc([N+](=O)[O-])c4cccnc34)CC2)c2ccccc2n1 | – | inactive: 4.38%

Source: PubChem BioAssay AID624418 (National Center for Advancing Translational Sciences (NCATS), 2012)
